# Assay results taken from PubChem BioAssay (NCATS).
# Inconclusive results, whose numbers are uncertain, are shown with a selection of clear calls. For some of these results: Where the call is inconclusive, the potency comes from a doubtful curve fit. Active and inactive are the calls of the source. Unless noted, calls follow the shape of the dose curve; as a rule, active = well fitted curve in the direction sought with a large enough effect; inconclusive = small, poorly fitted or top-dose-only effect, or another doubt; inactive = no such curve, though single readings can be large; an effect the other way counts as inactive or inconclusive.
# How the values were obtained:
# [1] = P-glycoprotein substrates identified in KB-8-5-11 adenocarcinoma cell line, qHTS therapeutic library screen (AID 1346987); also: potency is read from the fitted curve at half-maximal effect; nearly all actives have a fitted effect of over 65% in size
# Outline: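 Human cervical adenocarcinoma KB-8-5-11 cells, selected in colchicine to over-express P-gp and assayed without it, were exposed for 72 h to titrated compounds. An ATP-based luminescent viability signal gave AC50.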
# [2] = system: Zika virus NS2B-NS3 protease (linked construct); assay: Primary screen NINDS Rhodamine qHTS for Zika virus inhibitors (AID 1347160); conditions: activity change, negative = inhibition: at 57.1 µM (top of the series) unless noted; also: nearly all actives have a fitted effect of over 55% in size
# Outline: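 Rhodamine110-peptide cleavage (1.5 µM substrate) by 25 nM linked NS2B-NS3 enzyme at pH 8.0 (Tris, Tween 20), after 15 min RT preincubation with compounds; 15-min fluorescence change normalized to controls and Hill-fitted.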
# [3] = target: Cytochrome P450 3A4 (Homo sapiens) (UniProt P08684); assay: Cytochrome P450 family 3 subfamily A member 4 (CYP3A4) small molecule antagonists: luciferase qHTS assay (AID 1645841; active = well fitted curve in the direction sought with a large enough effect in the repeat runs; inconclusive = weak or mixed curves; inactive = no such curve, though single readings can be large; an effect the other way counts as inactive or inconclusive; also: potency is read from the fitted curve at half-maximal effect; nearly all actives have a fitted effect of over 45% in size)
# Outline: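 P450-Glo CYP3A4 enzyme with proluciferin substrate preincubated 10 min with compound at room temperature, then NADPH regeneration 1 h. Luciferin detection reagent added for 20 min; luminescence recorded. Ketoconazole positive control.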
# [4] = Primary fluorescence-based thiol-reactive (MSTI) qHTS assay for identification of artifact compounds. (AID 1845221);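 also: potency is read from the fitted curve at half-maximal effect; thiol-reactive compounds lower the probe fluorescence signal; nearly all actives have a fitted effect of over 65% in size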
# Outline: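 In PBS pH 7.4 with 2% DMSO, each compound met 4 uM MSTI for one hour at ambient temperature, shielded from light, before fluorescence detection.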
# HaCat = assay: Cytotoxic Profiling of Annotated Libraries Using Quantitative High-Throughput Screening (AID 1296008); conditions: Five cell lines viability, CellTiter-Glo ATP luminescence, 48-72 h; max response: active compounds read low; also: potency is read from the fitted curve at half-maximal effect; nearly all actives have a fitted effect of over 60% in size
# Outline: (§1)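 Cells exposed to compounds for 48 or 72 hr at 37 degrees Celsius. Viability read as ATP-coupled luminescence with CellTiter-Glo after 10 min at room temperature.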
# KB-3-1 = assay: as above; conditions: Five cell lines viability, CellTiter-Glo ATP luminescence, 48-72 h; max response: active compounds read low
# Outline: as §1
# NIH3T3 = assay: as above; conditions: Five cell lines viability, CellTiter-Glo ATP luminescence, 48-72 h; max response: active compounds read low
# Outline: as §1
# CAOV3 = assay: Primary qHTS to identify gynecologic anti-cancer compounds using libraries of approved drugs and bioactive compounds (AID 1345084); conditions: Gynecologic cancer cell panel viability, ATPlite luminescence, 48 h; activity change, negative = cytotoxicity: at 57.5 µM (top of the series); also: potency is read from the fitted curve at half-maximal effect; nearly all actives have a fitted effect of over 55% in size
# Outline: (§2)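 Five-concentration response, 48 h; readout is ATP-driven luciferase luminescence.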
# HeLa = assay: as above; conditions: Gynecologic cancer cell panel viability, ATPlite luminescence, 48 h; activity change, negative = cytotoxicity: at 57.5 µM (top of the series)
# Outline: as §2
# PA-1 = assay: as above; conditions: Gynecologic cancer cell panel viability, ATPlite luminescence, 48 h; series mostly up to 57.5 µM
# Outline: as §2
# SKOV3 = assay: as above; conditions: Gynecologic cancer cell panel viability, ATPlite luminescence, 48 h; series mostly up to 57.5 µM
# Outline: as §2
# Tov-21-G = assay: as above; conditions: Gynecologic cancer cell panel viability, ATPlite luminescence, 48 h; activity change, negative = cytotoxicity: at 57.5 µM (top of the series) unless noted
# Outline: as §2
# [5] = qHTS assay to identify inhibitors of the type 1 interferon - major histocompatibility complex class I in skeletal muscle: Counter screen cell viability and HiBit confirmation (AID 1347412); conditions: iHSKM muscle cells + IFN-b, HiBiT or CellTiter-Glo, 24 h; HiBiT; also: potency is read from the fitted curve at half-maximal effect; nearly all actives have a fitted effect of over 60% in size
# Outline: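 Myoblasts (C25cl48, HLA-B HiBiT) seeded in medium without dexamethasone, IFN-b 4 ng/ml added except unstimulated columns; 1 hr later compounds pinned (12-pt 1:3, top 46 uM final). Incubated 24 hrs, lysed 10 min, luminescence measured.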
# Tags tell the direction and shape of the fitted curve.
# Chain of UniProt P08684 (P08684 whole entry, looked up): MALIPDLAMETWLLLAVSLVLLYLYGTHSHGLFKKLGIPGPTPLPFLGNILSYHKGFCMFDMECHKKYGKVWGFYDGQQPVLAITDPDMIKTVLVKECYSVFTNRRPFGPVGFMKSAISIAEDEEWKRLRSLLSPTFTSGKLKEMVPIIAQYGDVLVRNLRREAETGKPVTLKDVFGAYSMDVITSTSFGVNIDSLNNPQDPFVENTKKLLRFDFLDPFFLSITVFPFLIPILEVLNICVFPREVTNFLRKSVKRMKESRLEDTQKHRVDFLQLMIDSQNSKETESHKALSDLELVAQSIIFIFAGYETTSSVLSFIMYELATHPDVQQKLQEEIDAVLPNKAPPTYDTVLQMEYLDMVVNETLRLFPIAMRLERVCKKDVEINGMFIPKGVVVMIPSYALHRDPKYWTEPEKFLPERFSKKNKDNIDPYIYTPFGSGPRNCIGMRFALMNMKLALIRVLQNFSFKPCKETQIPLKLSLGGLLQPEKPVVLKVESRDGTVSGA
smiles,measurement,setting,value
Cc1[nH]c(/C=C2\C(=O)Nc3ccc(F)cc32)c(C)c1C(=O)NCCN1CCCC1,Potency,[1],"inconclusive: 18.4 µM [inhibitor, single point]"
same,Potency,[2],inactive
same,Potency,[3],"inconclusive: 21.3 µM [falling, single point]"
same,Potency,[4],"inconclusive: 8.44 µM [inhibitor, partial curve]"
same,Potency,HaCat,"inconclusive: 6.51 µM [inhibitor, partial curve]"
same,Potency,KB-3-1,"inconclusive: 23.1 µM [inhibitor, single point]"
same,Potency,NIH3T3,"inconclusive: 18.4 µM [inhibitor, partial curve, poor fit]"
same,Potency,CAOV3,"inconclusive: 35.5 µM [cytotoxic, single point]"
same,Potency,HeLa,"inconclusive: 11.2 µM [cytotoxic, partial curve, poor fit]"
same,Potency,PA-1,"inconclusive: 31.6 µM [cytotoxic, single point]"
same,Potency,SKOV3,active: 15.8 µM
same,Potency,Tov-21-G,"inconclusive: 8.91 µM [cytotoxic, partial curve]"
same,Potency,[5],"inconclusive: 24.9 µM [inhibitor, partial curve, poor fit]"
